Experimental data as given in the antibiotic and cytotoxicity screens of Wong et al. (2023).
This is one part of the list.

What follows are compounds tested on S. aureus RN4220 (assay: growth inhibition call (relative growth <= 0.2)). Details: 50 µM.

Growth inhibition call, inactive:
COc1ccc(S(=O)(=O)Nc2ccc3c(c2)CC(=O)N([C@@H](C)CO)C[C@H](C)[C@@H](CN(C)CC2CC2)O3)cc1
Cc1ccc(S(=O)(=O)Nc2ccc3c(c2)C(=O)N([C@@H](C)CO)C[C@@H](C)[C@@H](CN(C)Cc2ccc(Oc4ccccc4)cc2)O3)cc1
C[C@H](CO)N1C[C@H](C)[C@@H](CN(C)Cc2ccc(C(=O)O)cc2)Oc2ccc(NC(=O)Nc3ccc(C(F)(F)F)cc3)cc2CC1=O
C[C@H](CO)N1C[C@H](C)[C@@H](CN(C)S(C)(=O)=O)OCCCC[C@H](C)Oc2ccc(NS(=O)(=O)c3ccc(F)cc3)cc2C1=O
C=CCNC(=O)[C@H]1[C@@H]2C(=O)O[C@@H](c3ccccc3)[C@@H](c3ccccc3)N2[C@@H](c2ccc(O)cc2)[C@]12C(=O)N(C(=O)OCCOC)c1ccc(C#Cc3ccc(OC)cc3)cc12
C[C@@H]1CN([C@H](C)CO)C(=O)Cc2cc(NC(=O)Nc3cccc4ccccc34)ccc2O[C@H]1CN(C)Cc1ccc(Oc2ccccc2)cc1
COc1ccc(NC(=O)N(C)C[C@@H]2Oc3ccc(NC(=O)C4CC4)cc3C(=O)N([C@H](C)CO)C[C@@H]2C)cc1
CN1C(=O)c2cc(NC(=O)c3cccs3)ccc2OC[C@H]2O[C@@H](CC(=O)NCCN3CCCCC3)CC[C@H]21
COc1ccc(S(=O)(=O)N(C)C[C@@H]2Oc3c(NC(=O)Nc4cccc5ccccc45)cccc3C(=O)N([C@@H](C)CO)C[C@@H]2C)cc1
